Source: the supplement of paper PMC7726561
Over roughly 1,100 sequences, “thermal melting temperature (Tm) of peptide-HLA complex” has its median near 58; the lowest 2% begin near 42. This is one part of the list.

target: HLA-A*02:01; assay: thermal melting temperature (Tm) of peptide-HLA complex; higher = more thermostable pHLA complex; settings: C1R-A*02:01
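Also: cell lysates heated 10 min at 37–73 °C, remaining pHLA pulled down with pan-class I antibody, peptides quantified by DIA-MS versus 37 °C, Tm where half the complex is lost.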

Sequence	thermal melting temperature [°C]
YLDENYERI	52.2
LLAILPEAARA	60
AVIDVGINRV	54.2
YLDEDTIYHL	45.2
ELAKETFGV	51.9
VLQDTVEQL	60.4
QLLEKVPTL	61.7
LLAETHYQL	57.2
RLMNDMTAV	58.9
VLADQVWTL	59
SQWDSPMRV	59
NQIEDNDDFQL	42
FQDPVPLTV	55.2
GLYEFPLNKV	61.7
YLLDQHILI	64.5
HIIENIVAV	59.6
